Out of some 150,000 compounds screened, about 540 (0.36%) showed an effect of 50% or more. Some of the results follow.

The test relates to Plasmodium falciparum. Briefly: Primary screen in NF54 nanoGlo assay, in single point, at 2uM, 72h; a lower Z score goes with more inhibition. The format is functional, Erythrocyte. The conditions noted are these: timepoint 72 hour.
As to `CCn1cc(C2=CCN(S(=O)(=O)c3cccc(F)c3)CC2)c2cccnc21`, the “% Inhibition” value was -17% and the Z score came out at 2.28.
The corresponding values for `OC[C@@H](Cc1ccccc1)Nc1nc(NC2CC2)nc2c1CCNCC2` are 2% and -0.44.
For the compound `CC1(C)C[C@@H](c2nccn2C2CCN(S(C)(=O)=O)CC2)CCO1`, the “% Inhibition” value is -19% and the Z score is 2.56.
The like results for `COCCn1c([C@H](C)NC(=O)Cc2c(C)n[nH]c2-c2ccc(Cl)cc2)nc2ccccc21` were, in that order, -7% and 0.94.
The like results for `c1cc(CNc2nnc(CC3CC3)o2)c2ccncc2c1` were, in that order, -15% and 1.6.
Take `Cc1nccn1CC(=O)N[C@H](c1cnn(C)c1)C(C)(C)C`: the “% Inhibition” value is -7% and the Z score came out at 1.22.
The corresponding values for `Cn1c(CS(=O)(=O)Cc2nc(C(C)(C)C)cs2)nnc1C1CCC1` are -17% and 2.13.
As for `CN(Cc1ccco1)C(=O)Cn1cnc2ccc(Cl)cc2c1=O`, the “% Inhibition” value is -9% and the Z score was 1.36.
The like results for `COC(=O)c1ccccc1NCC(=O)NC(=O)NC1CCCC1` were, in that order, -3% and 0.42.
The like results for `Cc1ccc2c(CCNC(=O)N3CCC[C@H]3CO)cn(C)c2c1` were, in that order, 5% and -0.84.
The corresponding values for `Cc1sc2ncnc(N3CC[S+]([O-])CC3)c2c1C` are -5% and 0.75.
As to `Cc1cc(CN2C(=O)c3ccccc3C2=O)cc(C(=O)N2CCc3ccccc3C2)c1O`, the “% Inhibition” value came out at 9% and the Z score is recorded as -1.17.
The corresponding values for `CCn1c(C(=O)NCc2cccc(OC)c2)c(N2CCCC2=O)c2cc(OC)ccc21` are -6% and 0.89.
The corresponding values for `C[C@@H](NCc1ncc(Cl)s1)c1ccc(Br)cc1` are 7% and -1.38.
Turning to `Cc1ccc(C)c(C(=O)c2sc(Nc3ccc4c(c3)OCCO4)nc2N)c1`, the “% Inhibition” value is on record as 1% and the Z score is -0.21.
As for `C[C@@H](CN(C)c1ccc(Cl)cc1C#N)C(=O)O`, the “% Inhibition” value is given as -20% and the Z score stood at 2.53.
For `CC(C)(C)CN1C[C@@H]2C[C@H]1C(=O)N1CCO[C@H](CN(Cc3ccc(F)c(F)c3)C[C@H]3O[C@@H](CC(=O)N2)[C@H](O)[C@@H]3O)C1`, the “% Inhibition” value was -15% and the Z score was 2.22.
As to `Cc1noc(C)c1NC(=O)c1ccc(Cl)cc1`, the “% Inhibition” value is reported as -7% and the Z score is 1.16.
Regarding `Nc1ncc(C(=O)N2CCC3(CCCC3)C2)s1`, the “% Inhibition” value came out at 6% and the Z score is reported as -0.8.
In the case of `COc1cc2nc(N(C)C)c(CN(CCc3ccc(F)cc3)C(=O)CCn3ccc(C)n3)cc2c(OC)c1OC`, the “% Inhibition” value is 12% and the Z score is given as -1.47.
The corresponding values for `O=C(CC[C@@H]1NC(=O)NC1=O)NCc1n[nH]c2c1CCCCC2` are -14% and 1.42.
The like results for `COc1cccc2c1CC[C@]2(N)C(=O)NCCc1ncc[nH]1` were, in that order, -4% and 0.73.
As for `CCC1(CNC(=O)[C@@H]2Cc3cc(C)ccc3S2(=O)=O)CCC1`, the “% Inhibition” value is on record as -9% and the Z score was 1.07.
The corresponding values for `COC(=O)c1cncc(C(=O)O[C@H](c2c(C)nn(C)c2C)C(F)(F)F)c1` are 4% and -0.59.
Take `CCOc1cc(C(=O)N(C)[C@@H]2CCC[C@H]2O)n[nH]1`: the “% Inhibition” value was -9% and the Z score is given as 1.7.
The like results for `CCc1ccc(N2C[C@@H](C(=O)OCc3nc(C(C)C)no3)CC2=O)cc1` were, in that order, 1% and -0.1.
In the case of `Cc1c(CN[C@H]2CN(C(=O)OC(C)(C)C)CC2(C)C)cnn1C`, the “% Inhibition” value is -9% and the Z score came out at 1.16.
The corresponding values for `CCc1nsc(N2CC([C@H](C)O)C2)n1` are -12% and 1.55.
The like results for `Cc1cnccc1CN(C)C1CCN(Cc2ccco2)CC1` were, in that order, -11% and 1.44.
Consider `CCC(CC)(NC(=O)c1ccc(Cl)cn1)c1nnn[nH]1`, for which the “% Inhibition” value is given as -10% and the Z score is listed as 1.29.
As to `O=C(CCc1nnc(C(=O)Nc2ccc(F)cc2)s1)NCc1cccnc1`, the “% Inhibition” value is on record as -9% and the Z score is given as 1.67.
The corresponding values for `Cn1cncc1-c1ccc(C(=O)N2C[C@H]3CC=CC[C@H]3C2)cc1` are -10% and 2.03.
The corresponding values for `O=S(=O)(c1ccccc1)N1C[C@H](O)[C@@H](N2CCC(OCc3cccnc3)CC2)C1` are -3% and 0.5.
The like results for `Cc1noc(OCCN2CCO[C@@H](C)C2)n1` were, in that order, -9% and 1.58.
For the compound `Cc1ccc2c(c1)OC[C@H](CC(=O)N1CCC(C)CC1)N2Cc1ccc(F)cc1`, the “% Inhibition” value is -12% and the Z score is reported as 1.71.
As for `Cc1cc2nc3n(c(=O)c2n1CC(=O)Nc1ccccc1C(F)(F)F)CCC3`, the “% Inhibition” value came out at 4% and the Z score was -0.46.
Take `CCCc1nnc(N(C)CCN2CCOCC2)o1`: the “% Inhibition” value is reported as -7% and the Z score is on record as 0.83.
As for `COc1ccc(CN2CCC3(CC2)c2ccccc2[C@@H](NC(=O)c2cccs2)[C@@H]3OC)c(F)c1`, the “% Inhibition” value is -15% and the Z score stood at 2.
Consider `C[C@H](NC(=O)c1ncccc1Cl)C1CCCC1`, for which the “% Inhibition” value is given as -3% and the Z score was determined as 0.46.
The like results for `CCc1nc(CN2C(=O)COc3ccc(S(=O)(=O)N4CCOCC4)cc32)no1` were, in that order, -1% and 0.09.
The like results for `Nc1cccc(C(=O)Nc2cccc(C3CCOCC3)c2)c1` were, in that order, -11% and 1.28.
The like results for `CCn1c(CC2CCNCC2)nn(Cc2cc(C)ccc2C)c1=O` were, in that order, -9% and 1.52.
Regarding `O=S(=O)(Oc1cc(Cl)ccc1-c1nc2ncccc2o1)c1ccccc1OC(F)(F)F`, the “% Inhibition” value is -7% and the Z score is 0.84.
On to `CC1(C)C(c2ccccn2)=[N+]([O-])[C@@H](c2ccc(Cl)cc2Cl)N1O`, for which the “% Inhibition” value was -1% and the Z score worked out at 0.07.
As to `NC(=O)C1CCN(C(=O)[C@H]2CC[C@H](Cn3c(=O)[nH]c4ccccc4c3=O)CC2)CC1`, the “% Inhibition” value is -8% and the Z score is given as 1.02.
The like results for `Cc1cnc(CNS(=O)(=O)c2ccc(OC(C)C)cc2)o1` were, in that order, -1% and 0.12.
Regarding `COc1ccc(-c2nc(C)ccc2OC)c(OC)n1`, the “% Inhibition” value is reported as -12% and the Z score amounted to 1.58.
The like results for `Cc1ccc(C(=O)Nc2c(C)n(C)n(-c3ccccc3)c2=O)cc1S(=O)(=O)Nc1cccc(C)c1C` were, in that order, -7% and 0.76.
The corresponding values for `Cc1ccccc1C(=O)NCC(=O)Nc1ccc(-n2ccnn2)cc1` are -1% and 0.29.
The corresponding values for `CCn1cnc2c1CCN([C@@H](C)c1ccccc1C)C2` are -5% and 0.48.
Consider `CC(C)Cc1nc(N2CCCN(C(=O)c3ccc(C(C)(C)C)cc3)CC2)c2c(-c3ccc4ccccc4c3)noc2n1`, for which the “% Inhibition” value is given as 0% and the Z score was determined as 0.
Turning to `CCC(C)[C@H](NC(=O)Nc1ccc(C)c(C)c1)C(=O)O` (stereo partly specified), the “% Inhibition” value was found to be 4% and the Z score is listed as -0.47.
The corresponding values for `CN1CC(=O)N2C[C@@H](NC(=O)c3ccc(-c4ccsc4)cc3)C[C@H]2C1=O` are 9% and -1.31.
The corresponding values for `CNC(=O)CCCN(C)Cc1ccc(C)c(C)c1` are -8% and 1.19.
The corresponding values for `Cc1ccc(C)c(NC(=O)Cn2c(C)ncc(C(=O)NC3CCCC3)c2=O)c1` are -11% and 1.71.
Turning to `Cc1nc(NC(=O)CNC(=O)OCc2ccccc2)sc1C`, the “% Inhibition” value is recorded as -9% and the Z score worked out at 0.8.
The corresponding values for `Cc1cc(C)nc(NCCCOc2cccnc2)n1` are -17% and 1.62.
The like results for `CC1CCN(Cc2nc3cc(NC(=O)c4ccccc4Cl)ccc3n2C)CC1` were, in that order, -28% and 2.46.
For `COc1cc(C)n(CCNC(=O)c2cn(-c3ccccc3)c(=O)cc2OC)c(=O)c1`, the “% Inhibition” value is listed as -1% and the Z score is recorded as 0.18.
Regarding `CCOc1ccc(N2C[C@@H](c3nnc(NC(=O)COc4ccc(F)cc4)o3)CC2=O)cc1`, the “% Inhibition” value is recorded as -7% and the Z score was determined as 1.
The like results for `C[C@H]1CN(C(=O)c2ncccc2O)CCN1C(=O)OC(C)(C)C` were, in that order, 1% and -0.17.
The corresponding values for `O=c1[nH]nc(CNCc2c(F)c(F)c(F)c(F)c2F)[nH]1` are -2% and 0.23.
The corresponding values for `O=S(=O)(NC1(c2nccs2)CCCC1)c1ccc(Cl)cc1` are -12% and 1.42.
For the compound `O=C(Cc1cccs1)Nc1ccc(Cl)cn1`, the “% Inhibition” value was -3% and the Z score was determined as 0.39.
The like results for `O=C([C@@H]1CNCCN1C(=O)CCCc1c[nH]c2ccccc12)N1CCCC1` were, in that order, -9% and 1.48.
For `CC1CCC(C(=O)O)N(C(=O)OC(C)(C)C)C1` (stereo unspecified), the “% Inhibition” value turned out to be 1% and the Z score was -0.09.
The corresponding values for `Cc1ccc(CN(C)C(=O)N[C@H]2CCCc3occc32)nc1` are -2% and 0.2.
In the case of `Cc1nn(C)c2cc(NC(=O)N3C[C@@H](C4CC4)C[C@H]3C3CC3)ccc12`, the “% Inhibition” value is on record as 10% and the Z score is on record as -1.86.
The like results for `O=C(NC1CCc2c1ccc(Cl)c2Cl)N1CCC(F)(CO)C1` (stereo unspecified) were, in that order, -8% and 1.28.
Turning to `CCOCCc1nc(Cc2noc(C)n2)no1`, the “% Inhibition” value is recorded as -8% and the Z score is recorded as 1.5.
Take `O=C(N[C@H]1CCCc2c1cnn2-c1ccccn1)C1CCS(=O)(=O)CC1`: the “% Inhibition” value is given as 1% and the Z score is reported as -0.23.
As for `c1coc(-c2nnc(-c3ccc(-n4ccnc4)nc3)o2)c1`, the “% Inhibition” value is -17% and the Z score is reported as 1.98.
The corresponding values for `O=C(Nc1n[nH]c(CCC2CCCC2)n1)c1[nH]nc2c1CCC2` are -1% and 0.15.
As for `CCCNC(=O)N1C[C@@H]2CN(C(=O)c3ccccc3)C[C@]2(C(=O)N(C)C)C1`, the “% Inhibition” value came out at 2% and the Z score was -0.34.
The corresponding values for `C[C@@H](CCCc1ccccc1)C(=O)N(C)Cc1c[nH]cn1` are -2% and 0.24.
For the compound `CO[C@H]1C[C@@H](O)C12CCN(c1nccc(N)n1)CC2`, the “% Inhibition” value is listed as -6% and the Z score was 1.23.
The corresponding values for `COc1ccc(OC)c(S(=O)(=O)Nc2ncn(Cc3ccccc3C)n2)c1` are -7% and 0.92.
For the compound `O=C(Cc1cncs1)N1CCC2(CC1)CNCc1ccccc1O2`, the “% Inhibition” value is on record as -11% and the Z score is 1.19.
As for `Cc1ncc(Cl)c(C(=O)N2CCC3(CC2)[C@H](O)C[C@@H]3OCCO)n1`, the “% Inhibition” value was 2% and the Z score is -0.33.
The like results for `COc1ccc(C2(NC(=O)c3nn(C)cc3C)CCOCC2)cc1F` were, in that order, 6% and -1.02.
On to `O=S(=O)(NCCO)c1ccc(-c2cnc3c(c2)CCCO3)cc1`, for which the “% Inhibition” value was -6% and the Z score is recorded as 0.57.
The corresponding values for `C=CCN(C(=O)Cc1csc(C)n1)[C@@]1(C)CCS(=O)(=O)C1` are -11% and 1.29.
The corresponding values for `CN(C)c1nc(CN(C)C2CCCCCC2)ns1` are -14% and 1.22.

The record behind these values is ChEMBL document CHEMBL4888484, “Replenishing the malaria drug discovery pipeline: Screening and hit evaluation of the MMV Hit Generation Library 1 (HGL1) against asexual blood stage Plasmodium falciparum ,using a nano luciferase reporter read-out” (2022).
